We go through 8 molecules from article PMC7529893, “Structural basis for substrate recognition and chemical inhibition of oncogenic MAGE ubiquitin ligases” (Nature Communications, 2020).

For experiment [1], the target named is T1, GST-PCF11 (human PCF11 amino acid 637-702) (human) (UniProt O94913).
T1 sequence: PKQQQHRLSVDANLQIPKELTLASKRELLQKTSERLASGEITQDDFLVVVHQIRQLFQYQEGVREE
Kind of experiment: pull-down; purified GST-tagged protein on glutathione Sepharose beads, in vitro translated Myc-tagged protein (rabbit reticulocyte lysate) added; 25 mM Tris pH 8.0, 2.7 mM KCl, 137 mM NaCl, 0.05% Tween-20, 10 mM 2-mercaptoethanol, 5% milk powder; immunoblot anti-Myc; only the target purified.

Experiment [2] deals with T2, GST-MAGE-A11 MHD (human MAGE-A11 MHD amino acid 218-429) (human) (UniProt P43364).
T2 sequence: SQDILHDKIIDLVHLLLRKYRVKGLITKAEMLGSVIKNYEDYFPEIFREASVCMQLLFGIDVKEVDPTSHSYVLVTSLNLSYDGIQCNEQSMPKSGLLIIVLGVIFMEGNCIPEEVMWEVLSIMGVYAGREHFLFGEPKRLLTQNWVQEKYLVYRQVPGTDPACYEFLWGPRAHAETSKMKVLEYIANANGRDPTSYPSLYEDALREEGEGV
The experiment is described as above.

The target in experiment [3] is T3, Myc-MAGE-A3 wild-type, P43357.
T3 chain: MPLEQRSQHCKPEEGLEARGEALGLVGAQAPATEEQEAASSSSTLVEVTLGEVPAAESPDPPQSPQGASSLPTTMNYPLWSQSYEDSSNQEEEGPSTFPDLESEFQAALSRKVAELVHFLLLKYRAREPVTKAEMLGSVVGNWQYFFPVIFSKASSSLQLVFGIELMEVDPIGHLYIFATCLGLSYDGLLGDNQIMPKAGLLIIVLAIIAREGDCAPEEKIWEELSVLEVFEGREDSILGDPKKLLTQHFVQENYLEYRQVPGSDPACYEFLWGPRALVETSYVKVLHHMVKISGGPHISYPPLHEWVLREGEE
The experiment can be described thus: co-IP; HeLa cells transfected with the indicated constructs for 48 h; IP with anti-Myc, immunoblot; in Fig. 5i lysates were incubated with 100 µM SJ521054 or SJ1008066 for 24 h. To be noted: remark: other sources report otherwise.

Numbering of substitutions follows the chain as printed. Names may count otherwise. No constants are given. Whether binding was seen depends on the method and setting. Binding seen in cells or lysates may run through a third protein. Some binding calls cover weakened binding; strength is not graded here. Where a sequence is shown, tags or fusion partners need not be part of it.

B1: Myc-MAGE-A11 wild-type (in vitro translated) (protein, UniProt P43364 1-429)
chain: METQFRRGGLGCSPASIKRKKKREDSGDFGLQVSTMFSEDDFQSTERAPYGPQLQWSQDLPRVQVFREQANLEDRSPRRTQRITGGEQVLWGPITQIFPTVRPADLTRVIMPLEQRSQHCKPEEGLQAQEEDLGLVGAQALQAEEQEAAFFSSTLNVGTLEELPAAESPSPPQSPQEESFSPTAMDAIFGSLSDEGSGSQEKEGPSTSPDLIDPESFSQDILHDKIIDLVHLLLRKYRVKGLITKAEMLGSVIKNYEDYFPEIFREASVCMQLLFGIDVKEVDPTSHSYVLVTSLNLSYDGIQCNEQSMPKSGLLIIVLGVIFMEGNCIPEEVMWEVLSIMGVYAGREHFLFGEPKRLLTQNWVQEKYLVYRQVPGTDPACYEFLWGPRAHAETSKMKVLEYIANANGRDPTSYPSLYEDALREEGEGV
Consider B1, for which the binding result in experiment [1] is “binds”.

B2: Myc-MAGE-A11 M341R (in vitro translated) (protein, UniProt P43364 1-429)
chain: B1 chain with M341R
As for B2, the binding entry in experiment [1] is “no binding”.

B3: Myc-MAGE-A11 I317R (in vitro translated) (protein, UniProt P43364 1-429)
chain: B1 chain with I317R
Turning to B3, in experiment [1], the binding result was “no binding”.

B4: Myc-MAGE-A11 MHD (197–429) (domain or fragment, UniProt P43364 197-429)
chain: SGSQEKEGPSTSPDLIDPESFSQDILHDKIIDLVHLLLRKYRVKGLITKAEMLGSVIKNYEDYFPEIFREASVCMQLLFGIDVKEVDPTSHSYVLVTSLNLSYDGIQCNEQSMPKSGLLIIVLGVIFMEGNCIPEEVMWEVLSIMGVYAGREHFLFGEPKRLLTQNWVQEKYLVYRQVPGTDPACYEFLWGPRAHAETSKMKVLEYIANANGRDPTSYPSLYEDALREEGEGV
On to B4, for which the binding result in experiment [1] was “binds”.

B5: Myc-RACGAP1 (protein, UniProt Q9H0H5 1-632)
chain: MDTMMLNVRNLFEQLVRRVEILSEGNEVQFIQLAKDFEDFRKKWQRTDHELGKYKDLLMKAETERSALDVKLKHARNQVDVEIKRRQRAEADCEKLERQIQLIREMLMCDTSGSIQLSEEQKSALAFLNRGQPSSSNAGNKRLSTIDESGSILSDISFDKTDESLDWDSSLVKTFKLKKREKRRSTSRQFVDGPPGPVKKTRSIGSAVDQGNESIVAKTTVTVPNDGGPIEAVSTIETVPYWTRSRRKTGTLQPWNSDSTLNSRQLEPRTETDSVGTPQSNGGMRLHDFVSKTVIKPESCVPCGKRIKFGKLSLKCRDCRVVSHPECRDRCPLPCIPTLIGTPVKIGEGMLADFVSQTSPMIPSIVVHCVNEIEQRGLTETGLYRISGCDRTVKELKEKFLRVKTVPLLSKVDDIHAICSLLKDFLRNLKEPLLTFRLNRAFMEAAEITDEDNSIAAMYQAVGELPQANRDTLAFLMIHLQRVAQSPHTKMDVANLAKVFGPTIVAHAVPNPDPVTMLQDIKRQPKVVERLLSLPLEYWSQFMMVEQENIDPLHVIENSNAFSTPQTPDIKVSLLGPVTTPEHQLLKTPSSSSLSQRVRSTLTKNTPRFGSKSKSATNLGRQGNFFASPMLK
As to B5, the binding entry in experiment [2] is “binds”.

B6: Myc-ZBTB7C (protein, UniProt A1YPR0 1-619)
chain: MANDIDELIGIPFPNHSSEVLCSLNEQRHDGLLCDVLLVVQEQEYRTHRSVLAACSKYFKKLFTAGTLASQPYVYEIDFVQPEALAAILEFAYTSTLTITAGNVKHILNAARMLEIQCIVNVCLEIMEPGGDGGEEDDKEDDDDDEDDDDEEDEEEEEEEEEDDDDDTEDFADQENLPDPQDISCHQSPSKTDHLTEKAYSDTPRDFPDSFQAGSPGHLGVIRDFSIESLLRENLYPKANIPDRRPSLSPFAPDFFPHLWPGDFGAFAQLPEQPMDSGPLDLVIKNRKIKEEEKEELPPPPPPPFPNDFFKDMFPDLPGGPLGPIKAENDYGAYLNFLSATHLGGLFPPWPLVEERKLKPKASQQCPICHKVIMGAGKLPRHMRTHTGEKPYMCTICEVRFTRQDKLKIHMRKHTGERPYLCIHCNAKFVHNYDLKNHMRIHTGVRPYQCEFCYKSFTRSDHLHRHIKRQSCRMARPRRGRKPAAWRAASLLFGPGGPAPDKAAFVMPPALGEVGGHLGGAAVCLPGPSPAKHFLAAPKGALSLQELERQFEETQMKLFGRAQLEAERNAGGLLAFALAENVAAARPYFPLPDPWAAGLAGLPGLAGLNHVASMSEANN
With B6, the binding result in experiment [2] was “binds”.

B7: Myc-ANKRD65 (protein, UniProt E5RJM6 1-399)
chain: MDSQRPEPREEEEEEQELRWMELDSEEALGTRTEGPSVVQGWGHLLQAVWRGPAGLVTQLLRQGASVEERDHAGRTPLHLAVLRGHAPLVRLLLQRGAPVGAVDRAGRTALHEAAWHGHSRVAELLLQRGASAAARSGTGLTPLHWAAALGHTLLAARLLEAPGPGPAAAEAEDARGWTAAHWAAAGGRLAVLELLAAGGAGLDGALLVAAAAGRGAALRFLLARGARVDARDGAGATALGLAAALGRSQDIEVLLGHGADPGIRDRHGRSALHRAAARGHLLAVQLLVTQGAEVDARDTLGLTPLHHASREGHVEVAGCLLDRGAQVDATGWLRKTPLHLAAERGHGPTVGLLLSRGASPTLRTQWAEVAQMPEGDLPQALPELGGGEKECEGIESTG
With B7, the binding result in experiment [2] is reported as “binds”.

B8: AMPKα1, Q13131 1-559 (enzyme)
chain: MRRLSSWRKMATAEKQKHDGRVKIGHYILGDTLGVGTFGKVKVGKHELTGHKVAVKILNRQKIRSLDVVGKIRREIQNLKLFRHPHIIKLYQVISTPSDIFMVMEYVSGGELFDYICKNGRLDEKESRRLFQQILSGVDYCHRHMVVHRDLKPENVLLDAHMNAKIADFGLSNMMSDGEFLRTSCGSPNYAAPEVISGRLYAGPEVDIWSSGVILYALLCGTLPFDDDHVPTLFKKICDGIFYTPQYLNPSVISLLKHMLQVDPMKRATIKDIREHEWFKQDLPKYLFPEDPSYSSTMIDDEALKEVCEKFECSEEEVLSCLYNRNHQDPLAVAYHLIIDNRRIMNEAKDFYLATSPPDSFLDDHHLTRPHPERVPFLVAETPRARHTLDELNPQKSKHQGVRKAKWHLGIRSQSRPNDIMAEVCRAIKQLDYEWKVVNPYYLRVRRKNPVTSTYSKMSLQLYQVDSRTYLLDFRSIDDEITEAKSGTATPQRSGSVSNYRSCQRSDSDAEAQGKSSEVSLTSSVTSLDSSPVDLTPRPGSHTIEFFEMCANLIKILAQ
On to B8, for which the binding result in experiment [3] is on record as “binds”.
